Assay results from PubChem BioAssay AID686971 (National Center for Advancing Translational Sciences (NCATS), 2013).
The whole screen tested about 360,000 compounds, of which about 7,500 (2.1%) were called active. The shares of active, inactive and inconclusive entries below differ from those in the screen. Calls follow the shape of the dose curve; as a rule, active = well fitted cell-killing curve with a large enough effect; inconclusive = small, poorly fitted or top-dose-only effect, or effect the other way, or another doubt; inactive = no such curve, though single readings can be large or run the other way. No potency is given beside an inconclusive call; the fits are too rough.

Assay: qHTS for induction of synthetic lethality in tumor cells producing 2HG: qHTS for the HT-1080-IDH1KD cell line;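 as to activity, negative = toxicity: 0% = DMSO wells and -100% = cell-free medium wells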
Conditions: HT-1080 IDH1 knockdown viability, ATP luminescence, 48 h; activity, negative = toxicity: at 46.1 µM (top of the series) unless noted
Procedure, shortened: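 Knockdown cells (IDH1KD HT-1080) received compounds 2 h after plating at 750 cells/well and were kept 48 h at 37 °C in 5% FBS RPMI. A CellTiter-Glo luminescence read gave % activity for curve fitting.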
Potency is read from the fitted curve at half-maximal effect; tags tell the direction and shape of the fitted curve.

Question: Which Potency does the source give for `CNC(=S)N(CCN(C)C)Cc1cc2cc3c(cc2[nH]c1=O)OCO3` here?
Answer: inactive

Question: For `O=C(Cn1ncc2c3ccccc3n(Cc3ccccc3F)c2c1=O)NC1CC1`, which Potency is on record?
Answer: inconclusive [rising, single point]

Question: Which Potency does the source give for `Cc1ccc(NC(=O)CN(Cc2ccccc2)S(C)(=O)=O)cc1C` here?
Answer: inconclusive [cytotoxic, single point]

Question: For `COc1cc2c(cc1OC)C(=O)C(Br)CC2` (configuration not stated), which Potency is on record?
Answer: inconclusive [cytotoxic, single point]

Question: For `CCn1cc(CN2CCCC(C(=O)Nc3cccc(-c4cc5ccccc5[nH]4)c3)C2)c(C)n1` (configuration not stated), which Potency is on record?
Answer: inconclusive [cytotoxic, single point]

Question: With `CNc1c(C(=O)O)ccc2c1C(=O)c1ccccc1C2=O` as the molecule, how does the Potency read?
Answer: inconclusive [cytotoxic, single point]

Question: With `COc1ccccc1N(C)S(=O)(=O)c1ccc(C(=O)Nc2cccc(S(=O)(=O)N3CCOCC3)c2)cc1` as the molecule, how does the Potency read?
Answer: inconclusive [cytotoxic, single point]

Question: With `CCC1CCCCN1S(=O)(=O)c1ccc2c(c1)CCN2C(=O)C1CCC1` (configuration not stated) as the molecule, how does the Potency read?
Answer: inconclusive [cytotoxic, partial curve]

Question: Which Potency does the source give for `CCCCC(=O)N/N=C/c1ccc(Sc2cccc3cccnc23)o1` here?
Answer: inconclusive [cytotoxic, partial curve]

Question: With `N=c1c2c(n(Cc3ccc(Br)cc3)c3c1CCC3)CCCC2` as the molecule, how does the Potency read?
Answer: active: 18.4 µM

Question: Which Potency does the source give for `Cc1ccc(C(=O)Nc2nnc(-c3ccco3)o2)cc1` here?
Answer: inactive

Question: Which activity, negative = toxicity does the source give for `CCCCCOc1ccc(OC(=O)c2ccncc2)cc1` here?
Answer: inconclusive: -30.9% [cytotoxic]

Question: Which Potency does the source give for `COc1ccc(C(=O)C2CCCN(Cc3c(O)cccc3OC)C2)cc1OC` (configuration not stated) here?
Answer: inconclusive [cytotoxic, partial curve]

Question: For `NC(COCc1ccccc1)c1csc(NC(=O)Nc2cccc(Cl)c2)n1` (configuration not stated), which Potency is on record?
Answer: inconclusive [cytotoxic, single point]

Question: For `Cc1ccc(-c2nn(CC(=O)NC(C)c3ccccc3)c(=O)c3ccccc23)cc1` (configuration not stated), which Potency is on record?
Answer: inactive

Question: Which Potency does the source give for `CCCc1nc2c(C)cc(Br)cn2c1Cc1ccccc1` here?
Answer: inconclusive [cytotoxic, single point]

Question: For `O=[N+]([O-])c1ccc(CN2CCOCCOCCN(Cc3ccc([N+](=O)[O-])cc3)CCOCC2)cc1`, which Potency is on record?
Answer: inconclusive [cytotoxic, single point]

Question: Which Potency does the source give for `CCNC(=S)NNc1ccccc1` here?
Answer: active: 6.51 µM

Question: Which Potency does the source give for `COc1ccccc1OCCNC(=O)CNC(=O)c1ccc(C(C)(C)C)cc1` here?
Answer: inconclusive [cytotoxic, single point]

Question: With `CSc1ccc(/C=C/c2ccc3cccc(O)c3n2)cc1` as the molecule, how does the Potency read?
Answer: inconclusive [cytotoxic, partial curve]

Question: For `O=C(N/N=C1\CCCc2c1[nH]c1ccc(Cl)cc21)c1ccncc1`, which Potency is on record?
Answer: inconclusive [cytotoxic, single point]

Question: For `c1ccc(-c2c[n+]3c(n2-c2ccccc2)CCC3)cc1`, which activity, negative = toxicity is on record?
Answer: inconclusive: -33.6% [cytotoxic]

Question: With `CCOC(=O)C1=CCN(S(=O)(=O)c2ccc(C)cc2)C1c1ccc(CC)cc1` (configuration not stated) as the molecule, how does the Potency read?
Answer: inconclusive [cytotoxic, single point]

Question: For `NCCOc1ccc(C2CCCCC2)cc1`, which Potency is on record?
Answer: inconclusive [cytotoxic, single point]

Question: For `CCN(CC)C(=O)CSc1nc2c(sc(=S)n2-c2ccccc2)c(=O)n1-c1ccc(OC)cc1OC`, which Potency is on record?
Answer: inactive

Question: For `CCCc1nc(SCC(=O)N2CCN(c3ccccc3)CC2)c2c(=O)n(C)c(=O)n(C)c2n1`, which Potency is on record?
Answer: inactive

Question: Which Potency does the source give for `OC(COCCC12CC3CC(CC(C3)C1)C2)CN1CCCC1` (configuration not stated) here?
Answer: inconclusive [cytotoxic, single point]

Question: Which Potency does the source give for `Cc1ccc(C)c(N2CCN(C(=O)c3ccc(CS(=O)(=O)c4ccccc4C)o3)CC2)c1` here?
Answer: active: 10 µM

Question: For `C=C(C)COc1ccc(-c2n[nH]c(C)c2Oc2ccccc2OC)c(O)c1`, which Potency is on record?
Answer: inconclusive [cytotoxic, single point]

Question: Which Potency does the source give for `Cc1cccc(Nc2nnc(SCC(=O)c3c(N)n(C4CC4)c(=O)[nH]c3=O)s2)c1` here?
Answer: inactive

Question: Which Potency does the source give for `O=[N+]([O-])c1cccc(-c2cc(-c3cc(Br)ccc3O)[nH]n2)c1` here?
Answer: inconclusive [cytotoxic, single point]

Question: With `CC(C)(C)c1ccc(OCC(=O)NCc2ccco2)c(Br)c1` as the molecule, how does the Potency read?
Answer: inconclusive [cytotoxic, single point]

Question: With `COc1ccccc1/C=C\C(=O)NCC(=O)N/N=C/c1cccc(OC)c1O` as the molecule, how does the Potency read?
Answer: active: 14.6 µM

Question: For `O=C(O)c1cccc(CN2C(=O)S/C(=C/c3ccccc3[N+](=O)[O-])C2=O)c1`, which Potency is on record?
Answer: inconclusive [cytotoxic, partial curve]

Question: For `COc1ccc(-n2ncc3c(N4CCN(Cc5ccccc5)CC4)ncnc32)cc1`, which Potency is on record?
Answer: inconclusive [cytotoxic, single point]

Question: For `CC(C)C[C@H]1CNC(=S)N1CC1CCCN1C[C@H](Cc1ccccc1)N1C[C@H](Cc2ccccc2)N(CC2CCCCC2)C1=S` (some centres not stated), which Potency is on record?
Answer: inconclusive [cytotoxic, single point]

Question: Which Potency does the source give for `Cc1ccc(C(=O)Nc2c(N)nc(SCC(=O)Nc3cc(C)on3)[nH]c2=O)cc1` here?
Answer: inconclusive [rising, single point]

Question: With `Cc1cc(Br)cn2c(Cc3cccc(Cl)c3)c(-c3ccco3)nc12` as the molecule, how does the Potency read?
Answer: inconclusive [cytotoxic, single point]

Question: Which Potency does the source give for `CN1CCN(C(=O)CCN2C(=O)/C(=C/c3ccccc3Cl)SC2=S)CC1` here?
Answer: inconclusive [cytotoxic, single point]

Question: For `CN(C)c1ccc(C(CNS(=O)(=O)c2ccc(F)c(F)c2)c2c[nH]c3ccccc23)cc1` (configuration not stated), which Potency is on record?
Answer: inconclusive [cytotoxic, single point]

Question: For `CCCCCCCCN1C(=O)[C@H](CC(=O)NCc2cccs2)C[C@@]2(C(=O)OC)CC(C)(C)CC=C12`, which Potency is on record?
Answer: inconclusive [cytotoxic, single point]

Question: Which Potency does the source give for `Cc1csc2nc(CSc3nc4ccccc4o3)c(Br)n12` here?
Answer: inconclusive [cytotoxic, single point]

Question: For `CS(=O)(=O)NCCOc1ccc(S(=O)(=O)N2CCCc3ccccc32)cc1`, which Potency is on record?
Answer: inconclusive [cytotoxic, partial curve]

Question: For `Cc1cc(Nc2ccccc2)n(-c2nc3ccccc3[nH]2)n1`, which Potency is on record?
Answer: inconclusive [cytotoxic, partial curve]

Question: Which Potency does the source give for `CC1(C)CNC(=S)N1Cc1ccccc1` here?
Answer: inactive

Question: With `N#CC1=C(N)NC(SCC(=O)Nc2ccccc2)=C(C#N)C12CCCCC2` as the molecule, how does the Potency read?
Answer: inactive

Question: Which Potency does the source give for `COc1cc(C(=O)OCC(=O)Nc2ccc(N3CCOCC3)cc2)ccc1OCC(C)C` here?
Answer: inactive

Question: Which Potency does the source give for `COc1cc(NC(=O)COC(=O)/C=C/c2c(C)nn(-c3ccc(F)cc3)c2Cl)cc(OC)c1` here?
Answer: inactive

Question: With `COC(=O)[C@]12CCCCC=C1N(CCC1=CCCCC1)C(=O)[C@H](CC(=O)NCc1cccc3ccccc13)C2` as the molecule, how does the Potency read?
Answer: active: 16.4 µM

Question: With `Clc1ccc(-n2ncc3c(NCc4ccco4)ncnc32)cc1` as the molecule, how does the Potency read?
Answer: inconclusive [cytotoxic, partial curve]

Question: Which Potency does the source give for `COc1ccc(Cc2nnc(N/N=C/c3ccc(O)cc3)[nH]c2=O)cc1OC` here?
Answer: inconclusive [cytotoxic, full curve]

Question: For `CCOc1cc(C(=O)Nc2ccc(S(=O)(=O)Nc3cnc4ccccc4n3)cc2)cc(OCC)c1OCC`, which Potency is on record?
Answer: inconclusive [cytotoxic, partial curve]

Question: Which Potency does the source give for `COc1ccc(N2CC(C(=O)Nc3cc(C(F)(F)F)ccc3N3CCCC3)CC2=O)c(OC)c1` (configuration not stated) here?
Answer: active: 20.6 µM

Question: With `O=C(NC(=S)Nc1ccccc1N1CCCC1)c1ccc(F)cc1` as the molecule, how does the Potency read?
Answer: inactive

Question: For `CCOC(=O)/C(=N\Nc1cc(Cl)ccc1Cl)N1CCN(C)CC1`, which Potency is on record?
Answer: active: 20.6 µM

Question: With `COCCC(=O)N1CCC(Oc2ccc(C(=O)N3CCCCC3COC)cc2)CC1` (configuration not stated) as the molecule, how does the Potency read?
Answer: inactive

Question: For `CCOC(=O)/C=C(\C)Sc1cc(=O)oc2ccccc12`, which Potency is on record?
Answer: active: 16.4 µM

Question: With `C#CCNC(=O)C1=C[C@@H](C)C[C@@H](OCc2ccc(CO)cc2)O1` as the molecule, how does the Potency read?
Answer: inactive

Question: Which Potency does the source give for `CCNC(=S)N1N=C2c3ccccc3CCC2C1c1ccc(F)cc1` (configuration not stated) here?
Answer: inconclusive [cytotoxic, partial curve, poor fit]

Question: With `CC1CCN(C(=O)c2ccc(S(=O)(=O)Cc3cc(F)ccc3F)c([N+](=O)[O-])c2)CC1` as the molecule, how does the Potency read?
Answer: inconclusive [cytotoxic, partial curve]

Question: For `CC(C)(C)c1cc(C(=O)N/N=C/c2ccccc2O)n(-c2ccccc2)n1`, which Potency is on record?
Answer: inconclusive [cytotoxic, full curve]

Question: Which Potency does the source give for `COc1cccc(Nc2nc(N)c([N+](=O)[O-])c(NCc3ccco3)n2)c1` here?
Answer: inconclusive [cytotoxic, single point]

Question: Which Potency does the source give for `COc1cccc(/C=N/NC(=O)c2ccc3nc[nH]c3c2)c1O` here?
Answer: inconclusive [cytotoxic, single point]

Question: With `Cc1ccc(C)c2[nH]c(=O)c(CN(CCN3CCCC3)C(=O)Nc3ccc(F)cc3)cc12` as the molecule, how does the Potency read?
Answer: inconclusive [cytotoxic, single point]

Question: With `COc1ccc(C(=O)N/N=C/c2ccc(OC)c(OS(=O)(=O)c3ccccc3)c2)cc1` as the molecule, how does the Potency read?
Answer: inconclusive [cytotoxic, single point]

Question: With `O=C(NC(NC(=S)N1CCOCC1)C(Cl)(Cl)Cl)c1ccc(Cl)cc1` (configuration not stated) as the molecule, how does the Potency read?
Answer: inconclusive [cytotoxic, partial curve]

Question: With `O=C1NC[C@@H](CCCCN2C[C@H](Cc3ccccc3)N(CCc3ccc(O)cc3)C(=O)C2=O)N(CC2CCCCC2)C1=O` as the molecule, how does the Potency read?
Answer: inactive
